PMC4336329 (PLoS ONE, 2015)
The campaign covered roughly 310,000 compounds. About 2,200 (0.71%) showed an effect of 50% or more. The effect is printed as a negative number. The list shows a part of the results.

The compounds below were run against human ether-à-go-go-related gene (hERG) potassium channel (human, UniProt Q12809) (assay: primary screen, population patch clamp on CHO cells stably expressing hERG).
Chain of human ether-à-go-go-related gene (hERG) potassium channel (Q12809 whole entry, looked up): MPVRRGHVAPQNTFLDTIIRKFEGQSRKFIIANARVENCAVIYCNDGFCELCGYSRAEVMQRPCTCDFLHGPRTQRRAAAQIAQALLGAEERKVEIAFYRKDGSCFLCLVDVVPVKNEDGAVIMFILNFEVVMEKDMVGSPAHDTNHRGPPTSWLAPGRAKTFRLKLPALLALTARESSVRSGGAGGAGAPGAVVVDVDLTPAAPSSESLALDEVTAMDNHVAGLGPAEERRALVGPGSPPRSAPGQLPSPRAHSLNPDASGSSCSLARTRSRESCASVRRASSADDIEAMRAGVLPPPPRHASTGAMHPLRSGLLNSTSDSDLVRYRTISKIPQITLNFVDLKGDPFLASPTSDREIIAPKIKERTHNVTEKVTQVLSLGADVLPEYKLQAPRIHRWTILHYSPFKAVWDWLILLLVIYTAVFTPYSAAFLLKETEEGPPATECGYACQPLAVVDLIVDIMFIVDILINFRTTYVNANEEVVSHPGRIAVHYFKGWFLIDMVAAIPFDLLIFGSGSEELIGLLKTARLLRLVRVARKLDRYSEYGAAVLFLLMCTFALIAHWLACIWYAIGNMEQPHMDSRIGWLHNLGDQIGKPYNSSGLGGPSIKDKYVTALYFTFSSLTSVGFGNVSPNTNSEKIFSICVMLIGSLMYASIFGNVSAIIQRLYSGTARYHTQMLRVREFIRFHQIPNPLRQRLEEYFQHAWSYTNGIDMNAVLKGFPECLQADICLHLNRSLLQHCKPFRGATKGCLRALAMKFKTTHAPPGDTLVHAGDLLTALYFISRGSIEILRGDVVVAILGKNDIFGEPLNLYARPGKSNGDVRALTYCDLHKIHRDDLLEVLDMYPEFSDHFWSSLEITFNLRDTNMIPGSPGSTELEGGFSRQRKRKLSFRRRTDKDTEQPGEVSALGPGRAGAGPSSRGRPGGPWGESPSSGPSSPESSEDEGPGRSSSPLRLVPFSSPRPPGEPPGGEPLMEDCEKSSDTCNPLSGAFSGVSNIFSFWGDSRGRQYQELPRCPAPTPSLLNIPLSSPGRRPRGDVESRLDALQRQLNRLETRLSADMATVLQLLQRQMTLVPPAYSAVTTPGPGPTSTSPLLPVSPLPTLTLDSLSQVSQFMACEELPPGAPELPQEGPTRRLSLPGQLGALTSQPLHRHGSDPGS

| SMILES | hERG current change (%, negative = inhibition) at 1uM [%] |
| --- | --- |
| Cc1ccc(NC(=O)c2ccccc2)cc1C | 20.5 |
| COc1cc(/C=C/C(=O)OCc2c(C)noc2C)ccc1OC(F)F | 9.04 |
| COc1ccc(CCNC(=O)c2cc(-c3cc(C)c(C)cc3O)n[nH]2)cc1OC | -9.33 |
| N=c1c2ccccc2nnn1-c1ccc(C(F)(F)F)cc1 | 10.3 |
| CCNC(=O)N(C(=O)NCC)n1c(C)nnc1C | 11.1 |
| COc1ccccc1CNC(=O)CN1C(=O)NC(C)(c2ccc(C(C)(C)C)cc2)C1=O (stereo not shown) | 20.2 |
| CC1(C)Cc2ccccc2C(/C(=N/O)C(N)=O)=N1 | 12.9 |
| Clc1ccccc1OCc1nn[nH]n1 | 18.7 |
| Cc1oc(-c2ccccc2F)nc1CS(=O)CC(=O)NCc1ccc(F)cc1 (stereo not shown) | 9.84 |
| CCOc1ccc(NC(=O)CN2C(=O)CCSc3ccc(S(=O)(=O)N4CCCC4)cc32)cc1 | 5 |
| CC(OC(=O)/C(C#N)=C/c1ccc(N(C)C)cc1)C(=O)NCc1ccco1 (stereo not shown) | 6.56 |
| Cl.c1ccc(CCCN2CCN(CCOC(c3ccccc3)c3ccccc3)CC2)cc1 | -41.9 |
| O=S(=O)(c1cccc(-c2cn3cccnc3n2)c1)N1CCOCC1 | 2.86 |
| COc1ccc(CCN(C)Cc2ccc(C(=O)Nc3ccccc3)cc2)cc1OC | -23.4 |
| C=CCn1c(C)c(C=C2C(=O)NC(=O)NC2=O)c2ccccc21 | 11.7 |
| Cc1cccc(C(=O)Nc2sc3c(c2C(=O)O)CCCC3)c1 | 21.5 |
| Nc1n[nH]c(C(F)(F)F)c1-c1ccccc1 | 2.1 |
| CN(Cc1cnn(-c2ccc(F)cc2)c1)Cc1nc(Cc2ccccc2)no1 | -7.04 |
| Cc1ccc(C(=O)CSc2ccc(-c3ccncc3)nn2)cc1 | 4.8 |
| CCCn1cc(CN2CCC(N3CCC(C(=O)N4CCOCC4)CC3)CC2)c(C)n1 | 13.4 |
| CCN1CCN(c2nc3c(c(=O)[nH]2)CCC3)CC1 | 13.2 |
| COC(=O)C1=C(c2ccc(F)cc2OCc2ccccc2)C[C@@H]2CC[C@H]1N2C(=O)NCCOc1ccc(OC)cc1 | 14.3 |
| O=C(Nc1ccc(-c2nc3ccccc3[nH]2)cc1)C1CCCO1 (stereo not shown) | 11.7 |
| CC(c1n[nH]c(=S)n1-c1ccccc1)N1CCCCC1 (stereo not shown) | 17.8 |
| COc1ccc(NC(=O)CO/N=C2/CCCc3nonc32)c(OC)c1 | 8.29 |
